We go through 48 compounds from PubChem BioAssay AID1508642 (National Center for Advancing Translational Sciences (NCATS), 2021).

Among all 43,000 compounds or so, about 200 (0.47%) were called active. Roughly 12% stayed inconclusive and do not appear here. Calls follow the shape of the dose curve; as a rule, active = well fitted cell-killing curve with a large enough effect; inconclusive = small, poorly fitted or top-dose-only effect, or effect the other way; inactive = flat fitted curve, though single readings scatter. This is one part of the list.
% is scaled to controls: 0 for no effect and ±100 for the full control effect.

This experiment can be described thus: Cell viability qHTS assay in S16 Pmp22-F2sN cells. Also: nearly all actives have a fitted effect of over 65% in size. To be noted: S16 Pmp22-F2sN Schwann cells viability, CellTiter-Glo, 24 h; series mostly up to 57.5 µM; activity change, negative = cytotoxicity: at the top concentration. In outline:
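S16 Pmp22-F2sN Schwann cells (500-1,000/well) in phenol-red-free DMEM with 10% FBS received 23 nL compound by pin tool for 24 h at 37 °C. Viability was then read as CellTiter-Glo luminescence after 15 min at room temperature.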
For `O=C(NC1(C(F)(F)F)N=C(c2ccccc2)N(C2CCCCC2)C1=O)c1ccc(F)cc1` (stereo not drawn), the “activity change, negative = cytotoxicity” value is inactive: 1.47%.

`Cc1cc(C)n(CCc2nc3c4ccccc4nc(SCc4ccc(Cl)cc4)n3n2)n1`: the “activity change, negative = cytotoxicity” value is inactive: 4.91%. For the compound `CCOc1ccccc1-c1noc(CCCC(=O)Nc2cccc(C(F)(F)F)c2)n1`, the “activity change, negative = cytotoxicity” value is inactive: -16.6%. Regarding `O=C(CSc1nc(-c2ccc(F)cc2)nc2c1Cc1ccccc1O2)Nc1cccc(C(=O)O)c1`, the “activity change, negative = cytotoxicity” value is inactive: 5.54%. Under `N#Cc1cccc(NC(=O)C2CCN(c3cnccn3)CC2)c1` stands inactive: -13.5%; under `CC(=O)Nc1ccc(NC(=O)c2cc3c(=O)n(Cc4cccnc4)ccc3nc2C)cc1`, inactive: 2.14%; under `COc1cc(NC(=O)C2CCN(S(=O)(=O)c3c(C)noc3/C=C/c3cccs3)CC2)cc(OC)c1`, inactive: -5.9%. For the compound `CCN1C(=O)c2ccccc2S(=O)c2ccc(C(=O)NCc3ccc(C)cc3)cc21` (stereo not drawn), the “activity change, negative = cytotoxicity” value was inactive: 0.607%.

Turning to `Cc1ccc2c(c1)c(=O)c(C(=O)c1ccccc1)cn2Cc1ccccc1F`, the “activity change, negative = cytotoxicity” value was inactive: -6.75%. Regarding `CCOc1cccc(C(=O)Nc2nnc(S(=O)(=O)N(C)c3ccc(C)cc3)s2)c1`, the “activity change, negative = cytotoxicity” value is inactive: 0.0428%. For the compound `COc1ccc(NC(=O)CC2C(=O)N(c3ccccc3)C(=O)N2CCC2=CCCCC2)cc1` (stereo not drawn), the “activity change, negative = cytotoxicity” value was inactive: -18.3%. `COc1ccc(/C=C(/C#N)c2nc(-c3cc4ccccc4oc3=O)cs2)cc1`: the “activity change, negative = cytotoxicity” value is inactive: 2.94%. Under `CCC1CN(C(=O)Nc2ccccc2C(F)(F)F)c2ccccc2O1` (stereo not drawn) stands inactive: 0.0669%; under `CCOc1ccccc1C1C(C(N)=O)=C(C)Nc2nc(-c3ccccc3Cl)nn21` (stereo not drawn), inactive: -5.17%. Under `Cc1cccc(N2CC(c3nc4ccc(C)cc4[nH]3)CC2=O)c1` (stereo not drawn) stands inactive: 0.423%; under `COc1ccc(-c2nc(SCC(=O)c3ccc(Br)cc3)n[nH]2)cc1`, inactive: -8.93%; under `Cc1c(CNC2CCC(C)CC2)c(C(=O)O)c(C)n1Cc1ccccc1F` (stereo not drawn), inactive: 14%. As for `CCc1ccc(Nc2cc(C)nc3nc(Cc4ccc(Cl)cc4)nn23)cc1`, the “activity change, negative = cytotoxicity” value was inactive: 1.11%.

Regarding `Cc1cccc(NC(=O)CSc2nc3ccc(NC(=O)c4cccs4)cc3s2)c1`, the “activity change, negative = cytotoxicity” value is inactive: 0.433%. Under `CC(C)c1ccc(OCc2cc(=O)n3c4c(sc3n2)CCCC4)cc1` stands inactive: 8.75%. Under `COc1ccc(-c2oc3ncn4nc(-c5ccc(Cl)cc5)nc4c3c2-c2ccc(OC)cc2)cc1` stands inactive: 9.22%; under `CCN(CC)CCN(C(=O)c1ccco1)c1nc2c(C)cccc2s1`, inactive: -8.09%.

For the compound `COc1ccccc1NC(=O)CN(c1ccc(C(C)C)cc1)S(=O)(=O)c1c(C)noc1C`, the “activity change, negative = cytotoxicity” value is inactive: -16.4%. Consider `CCOC(=O)c1ccc(CSc2nnc3cc(C)c4ccccc4n23)cc1`, for which the “activity change, negative = cytotoxicity” value was inactive: -0.66%. Under `O=C(NC1CCCCC1)c1ccc2c(c1)sc1nc(-c3ccccc3)cn12` stands inactive: -2.35%; under `CCN(CC)c1ccc(NS(=O)(=O)c2ccc3c(c2)CCCN3C(C)=O)c(C)c1`, inactive: -12.8%. Under `COC(=O)c1cc2oc(C)cc2n1Cc1c(C)cc(C)cc1C` stands inactive: -2.9%; under `COc1cc2c(=O)n(Cc3ccccc3)c(=O)n(CC(=O)Nc3cc(C(F)(F)F)ccc3Cl)c2cc1OC`, inactive: 3.42%; under `CN1C(C(=O)Nc2ccc(OC(F)(F)F)cc2)=CC(c2ccc3c(c2)OCO3)=NS1(=O)=O`, inactive: 0.169%.

Consider `O=C(Cn1cccc1C(=O)c1ccccc1)NCc1ccc(F)cc1`, for which the “activity change, negative = cytotoxicity” value is inactive: 0.978%. Under `Cc1ccc(OC(=O)c2snnc2C)cc1C` stands inactive: 5.25%; under `Cc1ccc(NC(=O)C(=O)NCC(c2ccc3c(c2)OCO3)N2CCOCC2)c(C)c1` (stereo not drawn), inactive: 8.15%.

Take `O=C(CSc1ncc2c(n1)-c1ccccc1N(Cc1ccc(F)cc1)S2(=O)=O)c1ccc(Br)cc1`: the “activity change, negative = cytotoxicity” value was inactive: 12.3%. Under `CCCN1CCN(CCNC(=O)Nc2cc(OC)cc(OC)c2)CC1` stands inactive: -1.51%; under `COc1ccc(C2c3c(n(C)c4ccccc34)C(=O)N2CC(=O)Nc2ccc(Cl)cc2)cc1` (stereo not drawn), inactive: 0.517%; under `CCc1ccc(N2CCn3c2nc2c3c(=O)n(Cc3cccc(C)c3)c(=O)n2C)cc1`, inactive: 20%. For the compound `CCOC(=O)c1c(C)oc2ncnc(NCCc3ccccc3)c12`, the “activity change, negative = cytotoxicity” value is inactive: -17.7%. As for `COc1cc2nc(SCC(=O)Nc3ccc(F)cc3)n3nc(CCn4c(C)nc5ccccc54)nc3c2cc1OC`, the “activity change, negative = cytotoxicity” value is inactive: 17.3%. On to `CCOc1ccc2nc(N3CCCC(C(=O)Nc4ccc(Br)c(C)c4)C3)sc2c1` (stereo not drawn), for which the “activity change, negative = cytotoxicity” value is inactive: -0.886%.

Take `CCC(=O)N1CCc2cc(Br)cc(S(=O)(=O)N3CCN(c4ccccc4)CC3)c21`: the “activity change, negative = cytotoxicity” value is inactive: 7.2%. On to `COc1ccc(CNC(=O)C2CCCN(S(=O)(=O)c3ccc4c(c3)CCCN4C(C)=O)C2)cc1` (stereo not drawn), for which the “activity change, negative = cytotoxicity” value was inactive: -21.9%. Under `CCc1nnc2c(NCc3ccc(F)cc3)nc3ccccc3n12` stands inactive: 1.04%. Under `COc1ccccc1N1CCN(C(=O)c2oc3ccccc3c2NC(=O)C(C)Oc2ccccc2)CC1` (stereo not drawn) stands inactive: 2.43%; under `Cc1ccc(C(C)C)c(OCCn2cc(C(=O)c3ccco3)c3ccccc32)c1`, inactive: -7.81%. Under `O=C(Nc1cc(Cl)cc(Cl)c1)c1ccc(F)c(S(=O)(=O)N2CCCCCC2)c1` stands inactive: 21%; under `COc1ccc2c(c1)CC(C(=O)N1CCC(C(N)=O)CC1)CO2` (stereo not drawn), inactive: -0.314%; under `COc1ccc(CCNC(=O)c2cc(Sc3cccc(Cl)c3)nc3ccccc23)cc1OC`, inactive: -18%.

Take `COc1ccc2c(c1)NC(c1ccc(OCC(C)C)cc1)=NC(c1ccncc1)=N2`: the “activity change, negative = cytotoxicity” value is inactive: 3.44%.
